# The list shows a part of the results.
# What was measured:
# Test in all cases: glycan array binding signal (z-score within array); higher = stronger binding
# Details in all cases: glycan notation: IUPAC condensed, linker removed
# Neu5Ac(a2-3)Gal(b1-4)Glc = target: Neu5Ac(a2-3)Gal(b1-4)Glc
# Summary of the method: (§1)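 Glycan array data were curated from 3228 arrays in the Consortium for Functional Glycomics database and kept only where the protein sequence was available. Glycan names were converted to IUPAC-condensed notation, and columns mapping to the same glycan were averaged. The binding signal is a within-array Z-score, averaged across arrays of the same protein sequence at different concentrations or buffers and across linkers. Negative Z-scores can be read as non-binding.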
# [1] = target: Neu5Ac(a2-3)Gal(b1-4)GlcNAc
# Summary of the method: as §1
# [2] = target: Neu5Ac(a2-3)Gal(b1-4)GlcNAc(b1-2)Man(a1-3)[GlcNAc(b1-2)Man(b1-4)GlcNAc(b1-2)Man(a1-6)]Man(b1-4)GlcNAc(b1-4)GlcNAc
# Summary of the method: as §1
# [3] = target: Neu5Ac(a2-3)Gal(b1-4)GlcNAc(b1-2)Man(a1-3)[Neu5Ac(a2-3)Gal(b1-4)GlcNAc(b1-2)Man(a1-6)]Man(b1-4)GlcNAc(b1-4)GlcNAc
# Summary of the method: as §1
# [4] = target: Neu5Ac(a2-3)Gal(b1-4)GlcNAc(b1-2)Man(a1-3)[Neu5Ac(a2-6)Gal(b1-4)GlcNAc(b1-2)Man(a1-6)]Man(b1-4)GlcNAc(b1-4)GlcNAc
# Summary of the method: as §1
# [5] = target: Neu5Ac(a2-3)Gal(b1-4)GlcNAc(b1-3)Gal
# Summary of the method: as §1
# [6] = target: Neu5Ac(a2-3)Gal(b1-4)GlcNAc(b1-3)Gal(b1-3)GlcNAc
# Summary of the method: as §1
# [7] = target: Neu5Ac(a2-3)Gal(b1-4)GlcNAc(b1-3)Gal(b1-4)GlcNAc
# Summary of the method: as §1
# [8] = target: Neu5Ac(a2-3)Gal(b1-4)GlcNAc(b1-3)Gal(b1-4)GlcNAc(b1-3)Gal(b1-4)GlcNAc
# Summary of the method: as §1
# [9] = target: Neu5Ac(a2-3)Gal(b1-4)GlcNAc(b1-3)Gal(b1-4)[Fuc(a1-3)]GlcNAc
# Summary of the method: as §1
# [10] = target: Neu5Ac(a2-3)Gal(b1-4)GlcNAc(b1-3)GalNAc
# Summary of the method: as §1
# [11] = target: Neu5Ac(a2-3)Gal(b1-4)GlcNAc(b1-6)[Gal(b1-3)]GalNAc
# Summary of the method: as §1
# [12] = target: Neu5Ac(a2-3)Gal(b1-4)GlcNAc(b1-6)[Neu5Ac(a2-3)Gal(b1-3)]GalNAc
# Summary of the method: as §1
# [13] = target: Neu5Ac(a2-3)Gal(b1-4)GlcNAc6S
# Summary of the method: as §1
# [14] = target: Neu5Ac(a2-3)Gal(b1-4)[Fuc(a1-3)]GlcNAc
# Summary of the method: as §1
# [15] = target: Neu5Ac(a2-3)Gal(b1-4)[Fuc(a1-3)]GlcNAc(b1-3)Gal
# Summary of the method: as §1
# [16] = target: Neu5Ac(a2-3)Gal(b1-4)[Fuc(a1-3)]GlcNAc(b1-3)Gal(b1-4)GlcNAc
# Summary of the method: as §1
# [17] = target: Neu5Ac(a2-3)Gal(b1-4)[Fuc(a1-3)]GlcNAc(b1-3)Gal(b1-4)[Fuc(a1-3)]GlcNAc(b1-3)Gal(b1-4)[Fuc(a1-3)]GlcNAc
# Summary of the method: as §1
# [18] = target: Neu5Ac(a2-3)Gal(b1-4)[Fuc(a1-3)]GlcNAc(b1-3)GalNAc
# Summary of the method: as §1
# [19] = target: Neu5Ac(a2-3)Gal(b1-4)[Fuc(a1-3)]GlcNAc(b1-6)[Gal(b1-3)]GalNAc
# Summary of the method: as §1
# [20] = target: Neu5Ac(a2-3)Gal(b1-4)[Fuc(a1-3)]GlcNAc6S
# Summary of the method: as §1
# [21] = target: Neu5Ac(a2-3)Gal6S(b1-4)GlcNAc
# Summary of the method: as §1
# [22] = target: Neu5Ac(a2-3)Gal6S(b1-4)[Fuc(a1-3)]GlcNAc
# Summary of the method: as §1
# Neu5Ac(a2-3)GalNAc = target: Neu5Ac(a2-3)GalNAc
# Summary of the method: as §1
# [23] = target: Neu5Ac(a2-3)GalNAc(b1-4)GlcNAc
# Summary of the method: as §1
# [24] = target: Neu5Ac(a2-3)[GalNAc(b1-4)]Gal(b1-4)Glc
# Summary of the method: as §1
# [25] = target: Neu5Ac(a2-3)[GalNAc(b1-4)]Gal(b1-4)GlcNAc
# Summary of the method: as §1
# [26] = target: Neu5Ac(a2-3)[GalNAc(b1-4)]Gal(b1-4)GlcNAc(b1-3)GalNAc
# Summary of the method: as §1
# [27] = target: Neu5Ac(a2-3)[Neu5Ac(a2-6)]GalNAc
# Summary of the method: as §1
# Neu5Ac(a2-6)Gal = target: Neu5Ac(a2-6)Gal
# Summary of the method: as §1
# [28] = target: Neu5Ac(a2-6)Gal(b1-3)GlcNAc(b1-3)[Gal(b1-4)GlcNAc(b1-6)]Gal(b1-4)Glc
# Summary of the method: as §1
# Neu5Ac(a2-6)Gal(b1-4)Glc = target: Neu5Ac(a2-6)Gal(b1-4)Glc
# Summary of the method: as §1
# [29] = target: Neu5Ac(a2-6)Gal(b1-4)GlcNAc
# Summary of the method: as §1
# [30] = target: Neu5Ac(a2-6)Gal(b1-4)GlcNAc(b1-2)Man(a1-3)Man(b1-4)GlcNAc(b1-4)GlcNAc
# Summary of the method: as §1
# [31] = target: Neu5Ac(a2-6)Gal(b1-4)GlcNAc(b1-2)Man(a1-3)[Gal(b1-4)GlcNAc(b1-2)Man(a1-6)]Man(b1-4)GlcNAc(b1-4)GlcNAc
# Summary of the method: as §1
# [32] = target: Neu5Ac(a2-6)Gal(b1-4)GlcNAc(b1-2)Man(a1-3)[GlcNAc(b1-2)Man(a1-6)]Man(b1-4)GlcNAc(b1-4)GlcNAc
# Summary of the method: as §1
# [33] = target: Neu5Ac(a2-6)Gal(b1-4)GlcNAc(b1-2)Man(a1-3)[GlcNAc(b1-2)Man(b1-4)GlcNAc(b1-2)Man(a1-6)]Man(b1-4)GlcNAc(b1-4)GlcNAc
# Summary of the method: as §1
# [34] = target: Neu5Ac(a2-6)Gal(b1-4)GlcNAc(b1-2)Man(a1-3)[Man(a1-6)]Man(b1-4)GlcNAc(b1-4)GlcNAc
# Summary of the method: as §1
binder,measurement,setting,value
"F17aG (Escherichia coli), Q99003 (protein) MTNFYKVFLAVFILVCCNISQAAVSFIGSTENDVGPSLGSYSRTHAMDNLPFVYDTRNKIGYQNANVWHISKGFCVGLDGKVDLPVVGSLDGQSIYGLTEEVGLLIWMGDTKYSRGTAMSGNSWENVFSGWCVGANTASTQGLSVRVTPVILKRNSSARYSVQKTSIGSIRMRPYNGSSAGSVQTTVNFSLNPFTLNDTVTSCRLLTPSAVNVSLAAISAGQLPSSGDEVVAGTTSLKLQCDAGVTVWATLTDATTPSNRSDILTLTGASTATGVGLRIYKNTDSTPLKFGPDSPVKGNENQWQLSTGTETSPSVRLYVKYVNTGEGINPGTVNGISTFTFSYQ",glycan array binding signal (z-score),Neu5Ac(a2-3)Gal(b1-4)Glc,-0.166
same,glycan array binding signal (z-score),[1],-0.248
same,glycan array binding signal (z-score),[2],-0.181
same,glycan array binding signal (z-score),[3],-0.333
same,glycan array binding signal (z-score),[4],-0.178
same,glycan array binding signal (z-score),[5],-0.158
same,glycan array binding signal (z-score),[6],-0.156
same,glycan array binding signal (z-score),[7],-0.075
same,glycan array binding signal (z-score),[8],-0.243
same,glycan array binding signal (z-score),[9],-0.241
same,glycan array binding signal (z-score),[10],-0.173
same,glycan array binding signal (z-score),[11],0.122
same,glycan array binding signal (z-score),[12],-0.082
same,glycan array binding signal (z-score),[13],-0.192
same,glycan array binding signal (z-score),[14],-0.248
same,glycan array binding signal (z-score),[15],-0.247
same,glycan array binding signal (z-score),[16],-0.214
same,glycan array binding signal (z-score),[17],-0.234
same,glycan array binding signal (z-score),[18],-0.119
same,glycan array binding signal (z-score),[19],-0.144
same,glycan array binding signal (z-score),[20],0.084
same,glycan array binding signal (z-score),[21],-0.233
same,glycan array binding signal (z-score),[22],-0.245
same,glycan array binding signal (z-score),Neu5Ac(a2-3)GalNAc,-0.032
same,glycan array binding signal (z-score),[23],-0.228
same,glycan array binding signal (z-score),[24],0.025
same,glycan array binding signal (z-score),[25],-0.241
same,glycan array binding signal (z-score),[26],-0.203
same,glycan array binding signal (z-score),[27],0.01
same,glycan array binding signal (z-score),Neu5Ac(a2-6)Gal,-0.237
same,glycan array binding signal (z-score),[28],-0.181
same,glycan array binding signal (z-score),Neu5Ac(a2-6)Gal(b1-4)Glc,-0.255
same,glycan array binding signal (z-score),[29],-0.158
same,glycan array binding signal (z-score),[30],-0.177
same,glycan array binding signal (z-score),[31],-0.179
same,glycan array binding signal (z-score),[32],-0.159
same,glycan array binding signal (z-score),[33],-0.141
same,glycan array binding signal (z-score),[34],-0.154

# — the supplement of paper PMC8728848
